Data published in PMC6527243.
These are yes or no findings as the source states them, for the method shown. Binding seen in cells or lysates may run through a third protein. Some entries that bind do so weakly or less than the wild type. Where a sequence is shown, tags or fusion partners need not be part of it.

T1: HA-tagged TMEM98 (UniProt Q91X86)
T1 sequence: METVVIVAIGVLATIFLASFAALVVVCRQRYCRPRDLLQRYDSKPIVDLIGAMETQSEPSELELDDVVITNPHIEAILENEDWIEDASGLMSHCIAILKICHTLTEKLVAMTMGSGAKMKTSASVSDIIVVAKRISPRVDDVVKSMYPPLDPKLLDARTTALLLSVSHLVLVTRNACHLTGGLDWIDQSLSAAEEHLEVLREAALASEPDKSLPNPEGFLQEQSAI

T2: Myc-C-terminal-cleavage-product of MYRF (aa587-1139) (UniProt Q3UR85)
T2 sequence: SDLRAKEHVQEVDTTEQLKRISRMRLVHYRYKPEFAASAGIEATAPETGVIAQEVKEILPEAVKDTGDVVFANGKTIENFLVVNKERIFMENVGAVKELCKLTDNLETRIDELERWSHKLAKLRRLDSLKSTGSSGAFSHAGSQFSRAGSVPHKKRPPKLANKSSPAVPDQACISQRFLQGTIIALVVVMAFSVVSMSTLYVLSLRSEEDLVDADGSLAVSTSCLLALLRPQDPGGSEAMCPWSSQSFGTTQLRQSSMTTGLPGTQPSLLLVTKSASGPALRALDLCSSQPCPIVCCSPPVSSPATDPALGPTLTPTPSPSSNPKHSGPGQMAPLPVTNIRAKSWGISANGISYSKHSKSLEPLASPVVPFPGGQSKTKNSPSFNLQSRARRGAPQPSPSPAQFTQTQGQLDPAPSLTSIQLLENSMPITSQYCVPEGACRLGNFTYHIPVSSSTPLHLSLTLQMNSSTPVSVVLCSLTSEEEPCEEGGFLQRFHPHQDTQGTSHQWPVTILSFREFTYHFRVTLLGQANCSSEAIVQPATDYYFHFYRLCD

T3: Myc-MYRF 1-846 (un-cleaved form) (UniProt Q3UR85)
T3 sequence: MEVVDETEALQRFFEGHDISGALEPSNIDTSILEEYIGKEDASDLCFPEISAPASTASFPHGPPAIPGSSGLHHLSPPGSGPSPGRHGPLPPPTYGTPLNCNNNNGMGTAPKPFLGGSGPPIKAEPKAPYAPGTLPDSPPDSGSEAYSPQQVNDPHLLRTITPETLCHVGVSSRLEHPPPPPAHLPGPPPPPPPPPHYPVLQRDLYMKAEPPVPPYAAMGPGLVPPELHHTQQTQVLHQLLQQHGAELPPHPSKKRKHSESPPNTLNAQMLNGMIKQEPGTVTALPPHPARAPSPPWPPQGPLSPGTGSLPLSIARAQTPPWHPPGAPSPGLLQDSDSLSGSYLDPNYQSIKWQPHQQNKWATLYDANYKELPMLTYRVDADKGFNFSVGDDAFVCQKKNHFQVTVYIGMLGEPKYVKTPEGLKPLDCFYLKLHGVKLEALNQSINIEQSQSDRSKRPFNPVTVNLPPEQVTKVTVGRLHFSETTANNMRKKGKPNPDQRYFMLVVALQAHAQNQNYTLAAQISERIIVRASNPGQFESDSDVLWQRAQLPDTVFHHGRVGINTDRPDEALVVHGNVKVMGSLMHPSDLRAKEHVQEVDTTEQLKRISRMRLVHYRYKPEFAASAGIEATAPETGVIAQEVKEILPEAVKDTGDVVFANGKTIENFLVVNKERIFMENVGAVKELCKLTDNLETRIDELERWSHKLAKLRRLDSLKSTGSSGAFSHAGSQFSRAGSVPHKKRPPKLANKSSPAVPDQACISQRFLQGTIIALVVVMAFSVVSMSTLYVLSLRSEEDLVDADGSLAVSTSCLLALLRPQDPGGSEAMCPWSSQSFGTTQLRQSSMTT

T4: full-length myc-MYRF (un-cleaved form) (UniProt Q3UR85)
T4 sequence: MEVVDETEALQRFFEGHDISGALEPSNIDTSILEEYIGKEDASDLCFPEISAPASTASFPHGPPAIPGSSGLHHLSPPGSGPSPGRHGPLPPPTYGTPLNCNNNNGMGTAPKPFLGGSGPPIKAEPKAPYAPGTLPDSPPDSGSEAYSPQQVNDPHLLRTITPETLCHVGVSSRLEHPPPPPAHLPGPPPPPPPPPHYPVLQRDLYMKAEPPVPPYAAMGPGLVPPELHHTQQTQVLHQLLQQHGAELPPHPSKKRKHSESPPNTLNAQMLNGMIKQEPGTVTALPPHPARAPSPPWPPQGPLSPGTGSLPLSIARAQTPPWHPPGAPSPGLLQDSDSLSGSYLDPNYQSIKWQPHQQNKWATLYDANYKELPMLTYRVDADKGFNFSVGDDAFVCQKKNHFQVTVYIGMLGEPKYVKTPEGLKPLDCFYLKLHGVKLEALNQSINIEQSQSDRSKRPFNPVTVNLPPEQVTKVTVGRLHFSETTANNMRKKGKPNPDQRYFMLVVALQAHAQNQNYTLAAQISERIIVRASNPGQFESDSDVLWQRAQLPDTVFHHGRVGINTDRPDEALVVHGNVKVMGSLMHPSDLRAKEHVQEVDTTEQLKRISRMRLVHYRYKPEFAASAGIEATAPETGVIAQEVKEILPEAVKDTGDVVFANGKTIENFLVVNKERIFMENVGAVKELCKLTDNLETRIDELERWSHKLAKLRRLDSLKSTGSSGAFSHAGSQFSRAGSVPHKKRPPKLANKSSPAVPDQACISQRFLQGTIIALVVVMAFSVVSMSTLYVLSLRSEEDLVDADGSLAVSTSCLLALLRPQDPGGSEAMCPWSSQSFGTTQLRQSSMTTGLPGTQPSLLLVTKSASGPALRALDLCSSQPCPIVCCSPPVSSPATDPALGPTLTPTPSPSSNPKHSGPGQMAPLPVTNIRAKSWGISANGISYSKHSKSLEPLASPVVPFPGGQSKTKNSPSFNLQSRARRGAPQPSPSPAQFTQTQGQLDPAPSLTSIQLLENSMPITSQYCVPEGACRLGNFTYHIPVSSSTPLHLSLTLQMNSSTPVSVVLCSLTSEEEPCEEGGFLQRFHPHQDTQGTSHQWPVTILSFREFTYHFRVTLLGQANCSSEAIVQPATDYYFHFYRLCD


What was measured:
[1] = biological target: T1, HA-tagged TMEM98; experiment: co-IP; HEK293T cells co-transfected with HA-TMEM98 and Myc-MYRF constructs; lysis in 20 mM Tris pH 7.5, 150 mM NaCl, 1% Triton X-100, 1 mM EDTA, 1 mM EGTA; immunoprecipitation with rat anti-HA (3F10) and Dynabeads Protein G at 4 C; blot against Myc
[2] = biological target: T2, Myc-C-terminal-cleavage-product of MYRF (aa587-1139); experiment: co-IP; HEK293T cells co-transfected with HA-TMEM98 and Myc-MYRF constructs; lysis in 20 mM Tris pH 7.5, 150 mM NaCl, 1% Triton X-100, 1 mM EDTA, 1 mM EGTA; immunoprecipitation with mouse anti-Myc (4A6) and Dynabeads Protein G at 4 C; blot against HA
[3] = biological target: T3, Myc-MYRF 1-846 (un-cleaved form); experiment: as above
[4] = biological target: T4, full-length myc-MYRF (un-cleaved form); experiment: as above

Binder | binding [1] | binding [2] | binding [3] | binding [4]
HA-tagged TMEM98 (protein, UniProt Q91X86 1-226) METVVIVAIGVLATIFLASFAALVVVCRQRYCRPRDLLQRYDSKPIVDLIGAMETQSEPSELELDDVVITNPHIEAILENEDWIEDASGLMSHCIAILKICHTLTEKLVAMTMGSGAKMKTSASVSDIIVVAKRISPRVDDVVKSMYPPLDPKLLDARTTALLLSVSHLVLVTRNACHLTGGLDWIDQSLSAAEEHLEVLREAALASEPDKSLPNPEGFLQEQSAI | – | binds | binds | binds
full-length myc-MYRF (un-cleaved form) (protein, UniProt Q3UR85 1-1138) MEVVDETEALQRFFEGHDISGALEPSNIDTSILEEYIGKEDASDLCFPEISAPASTASFPHGPPAIPGSSGLHHLSPPGSGPSPGRHGPLPPPTYGTPLNCNNNNGMGTAPKPFLGGSGPPIKAEPKAPYAPGTLPDSPPDSGSEAYSPQQVNDPHLLRTITPETLCHVGVSSRLEHPPPPPAHLPGPPPPPPPPPHYPVLQRDLYMKAEPPVPPYAAMGPGLVPPELHHTQQTQVLHQLLQQHGAELPPHPSKKRKHSESPPNTLNAQMLNGMIKQEPGTVTALPPHPARAPSPPWPPQGPLSPGTGSLPLSIARAQTPPWHPPGAPSPGLLQDSDSLSGSYLDPNYQSIKWQPHQQNKWATLYDANYKELPMLTYRVDADKGFNFSVGDDAFVCQKKNHFQVTVYIGMLGEPKYVKTPEGLKPLDCFYLKLHGVKLEALNQSINIEQSQSDRSKRPFNPVTVNLPPEQVTKVTVGRLHFSETTANNMRKKGKPNPDQRYFMLVVALQAHAQNQNYTLAAQISERIIVRASNPGQFESDSDVLWQRAQLPDTVFHHGRVGINTDRPDEALVVHGNVKVMGSLMHPSDLRAKEHVQEVDTTEQLKRISRMRLVHYRYKPEFAASAGIEATAPETGVIAQEVKEILPEAVKDTGDVVFANGKTIENFLVVNKERIFMENVGAVKELCKLTDNLETRIDELERWSHKLAKLRRLDSLKSTGSSGAFSHAGSQFSRAGSVPHKKRPPKLANKSSPAVPDQACISQRFLQGTIIALVVVMAFSVVSMSTLYVLSLRSEEDLVDADGSLAVSTSCLLALLRPQDPGGSEAMCPWSSQSFGTTQLRQSSMTTGLPGTQPSLLLVTKSASGPALRALDLCSSQPCPIVCCSPPVSSPATDPALGPTLTPTPSPSSNPKHSGPGQMAPLPVTNIRAKSWGISANGISYSKHSKSLEPLASPVVPFPGGQSKTKNSPSFNLQSRARRGAPQPSPSPAQFTQTQGQLDPAPSLTSIQLLENSMPITSQYCVPEGACRLGNFTYHIPVSSSTPLHLSLTLQMNSSTPVSVVLCSLTSEEEPCEEGGFLQRFHPHQDTQGTSHQWPVTILSFREFTYHFRVTLLGQANCSSEAIVQPATDYYFHFYRLCD | binds | – | – | –

The remaining lines, values ahead:

binding [1] | binding [2] | binding [3] | binding [4] | Binder
binds | – | – | – | Myc-MYRF 1-846 (un-cleaved form) (domain or fragment, UniProt Q3UR85 1-846) MEVVDETEALQRFFEGHDISGALEPSNIDTSILEEYIGKEDASDLCFPEISAPASTASFPHGPPAIPGSSGLHHLSPPGSGPSPGRHGPLPPPTYGTPLNCNNNNGMGTAPKPFLGGSGPPIKAEPKAPYAPGTLPDSPPDSGSEAYSPQQVNDPHLLRTITPETLCHVGVSSRLEHPPPPPAHLPGPPPPPPPPPHYPVLQRDLYMKAEPPVPPYAAMGPGLVPPELHHTQQTQVLHQLLQQHGAELPPHPSKKRKHSESPPNTLNAQMLNGMIKQEPGTVTALPPHPARAPSPPWPPQGPLSPGTGSLPLSIARAQTPPWHPPGAPSPGLLQDSDSLSGSYLDPNYQSIKWQPHQQNKWATLYDANYKELPMLTYRVDADKGFNFSVGDDAFVCQKKNHFQVTVYIGMLGEPKYVKTPEGLKPLDCFYLKLHGVKLEALNQSINIEQSQSDRSKRPFNPVTVNLPPEQVTKVTVGRLHFSETTANNMRKKGKPNPDQRYFMLVVALQAHAQNQNYTLAAQISERIIVRASNPGQFESDSDVLWQRAQLPDTVFHHGRVGINTDRPDEALVVHGNVKVMGSLMHPSDLRAKEHVQEVDTTEQLKRISRMRLVHYRYKPEFAASAGIEATAPETGVIAQEVKEILPEAVKDTGDVVFANGKTIENFLVVNKERIFMENVGAVKELCKLTDNLETRIDELERWSHKLAKLRRLDSLKSTGSSGAFSHAGSQFSRAGSVPHKKRPPKLANKSSPAVPDQACISQRFLQGTIIALVVVMAFSVVSMSTLYVLSLRSEEDLVDADGSLAVSTSCLLALLRPQDPGGSEAMCPWSSQSFGTTQLRQSSMTT
no binding | – | – | – | MYRF N-terminal cleavage product (Myc-tagged) (domain or fragment, UniProt Q3UR85 1-586) MEVVDETEALQRFFEGHDISGALEPSNIDTSILEEYIGKEDASDLCFPEISAPASTASFPHGPPAIPGSSGLHHLSPPGSGPSPGRHGPLPPPTYGTPLNCNNNNGMGTAPKPFLGGSGPPIKAEPKAPYAPGTLPDSPPDSGSEAYSPQQVNDPHLLRTITPETLCHVGVSSRLEHPPPPPAHLPGPPPPPPPPPHYPVLQRDLYMKAEPPVPPYAAMGPGLVPPELHHTQQTQVLHQLLQQHGAELPPHPSKKRKHSESPPNTLNAQMLNGMIKQEPGTVTALPPHPARAPSPPWPPQGPLSPGTGSLPLSIARAQTPPWHPPGAPSPGLLQDSDSLSGSYLDPNYQSIKWQPHQQNKWATLYDANYKELPMLTYRVDADKGFNFSVGDDAFVCQKKNHFQVTVYIGMLGEPKYVKTPEGLKPLDCFYLKLHGVKLEALNQSINIEQSQSDRSKRPFNPVTVNLPPEQVTKVTVGRLHFSETTANNMRKKGKPNPDQRYFMLVVALQAHAQNQNYTLAAQISERIIVRASNPGQFESDSDVLWQRAQLPDTVFHHGRVGINTDRPDEALVVHGNVKVMGSLMHP
